Results reported in patent US5143902A, “Glucagon analogs with ASP^9 replacements or deletions” (The Rockefeller University, priority 1991, dated 1992).
At least one peptide structure holds a part that was inferred or is arguable (an end, a ring closure or a residue). Where no end group is shown, it is not given here.

These molecules were tested against T1, glucagon receptors (Rattus norvegicus, UniProt P30082) (assay: Membrane binding assay: competition with 125I-labeled glucagon on liver plasma membranes). Conditions: relative binding affinity vs glucagon standard, 125I-glucagon 1.6 nM, measured as amides.
T1 construct: Liver plasma membranes were prepared from male Sprague-Dawley rats; from tissue; host or cells: rat liver plasma membranes (male Sprague-Dawley, Charles River Breeding Laboratories)
T1 sequence (P30082 27-485): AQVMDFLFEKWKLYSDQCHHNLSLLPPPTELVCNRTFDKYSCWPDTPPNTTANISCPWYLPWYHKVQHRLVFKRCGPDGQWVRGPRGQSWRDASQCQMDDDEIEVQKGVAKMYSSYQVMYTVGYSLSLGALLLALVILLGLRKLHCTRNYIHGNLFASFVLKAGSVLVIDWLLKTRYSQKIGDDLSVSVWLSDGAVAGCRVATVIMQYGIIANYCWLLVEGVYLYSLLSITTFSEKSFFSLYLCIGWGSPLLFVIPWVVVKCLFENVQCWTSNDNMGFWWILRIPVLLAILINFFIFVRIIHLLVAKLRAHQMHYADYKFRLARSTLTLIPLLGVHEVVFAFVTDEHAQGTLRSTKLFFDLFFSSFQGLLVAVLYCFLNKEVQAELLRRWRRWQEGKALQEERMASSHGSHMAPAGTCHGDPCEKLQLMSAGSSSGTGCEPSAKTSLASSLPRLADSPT
For `CSCC[C@H](NC(=O)[C@H](CC(C)C)NC(=O)[C@H](Cc1c[nH]c2ccccc12)NC(=O)[C@H](CCC(N)=O)NC(=O)[C@@H](NC(=O)[C@H](Cc1ccccc1)NC(=O)[C@H](CC(=O)O)NC(=O)[C@H](CCC(N)=O)NC(=O)[C@H](C)NC(=O)[C@H](CCCNC(=N)N)NC(=O)[C@H](CCCNC(=N)N)NC(=O)[C@H](CO)NC(=O)[C@H](CC(=O)O)NC(=O)[C@H](CC(C)C)NC(=O)[C@H](Cc1ccc(O)cc1)NC(=O)[C@H](CCCCN)NC(=O)[C@H](CO)NC(=O)[C@H](Cc1ccc(O)cc1)NC(=O)[C@@H](CC(=O)O)NC(=O)[C@H](CO)NC(=O)[C@@H](NC(=O)[C@H](Cc1ccccc1)NC(=O)[C@@H](NC(=O)CNC(=O)[C@H](CCC(N)=O)NC(=O)[C@@H](N)CO)[C@@H](C)O)[C@@H](C)O)C(C)C)C(=O)N[C@@H](CC(N)=O)C(=O)N[C@H](C(N)=O)[C@@H](C)O` [compound 9, des-His^1 [D-Asp^9]], the “% Binding Affinity” value was 3.6%. For `CSCC[C@H](NC(=O)[C@H](CC(C)C)NC(=O)[C@H](Cc1c[nH]c2ccccc12)NC(=O)[C@H](CCC(N)=O)NC(=O)[C@@H](NC(=O)[C@H](Cc1ccccc1)NC(=O)[C@H](CC(=O)O)NC(=O)[C@H](CCC(N)=O)NC(=O)[C@H](C)NC(=O)[C@H](CCCNC(=N)N)NC(=O)[C@H](CCCNC(=N)N)NC(=O)[C@H](CO)NC(=O)[C@H](CC(=O)O)NC(=O)[C@H](CC(C)C)NC(=O)[C@H](Cc1ccc(O)cc1)NC(=O)[C@H](CCCCN)NC(=O)[C@H](CO)NC(=O)[C@H](Cc1ccc(O)cc1)NC(=O)[C@@H](CCC(=O)O)NC(=O)[C@H](CO)NC(=O)[C@@H](NC(=O)[C@H](Cc1ccccc1)NC(=O)[C@@H](NC(=O)CNC(=O)[C@H](CCC(N)=O)NC(=O)[C@@H](N)CO)[C@@H](C)O)[C@@H](C)O)C(C)C)C(=O)N[C@@H](CC(N)=O)C(=O)N[C@H](C(N)=O)[C@@H](C)O` [compound 10, des-His^1 [D-Glu^9]], the “% Binding Affinity” value was 16%. With `COC(=O)CC[C@H](NC(=O)[C@H](CO)NC(=O)[C@@H](NC(=O)[C@H](Cc1ccccc1)NC(=O)[C@@H](NC(=O)CNC(=O)[C@H](CCC(N)=O)NC(=O)[C@@H](N)CO)[C@@H](C)O)[C@@H](C)O)C(=O)N[C@@H](Cc1ccc(O)cc1)C(=O)N[C@@H](CO)C(=O)N[C@@H](CCCCN)C(=O)N[C@@H](Cc1ccc(O)cc1)C(=O)N[C@@H](CC(C)C)C(=O)N[C@@H](CC(=O)O)C(=O)N[C@@H](CO)C(=O)N[C@@H](CCCNC(=N)N)C(=O)N[C@@H](CCCNC(=N)N)C(=O)N[C@@H](C)C(=O)N[C@@H](CCC(N)=O)C(=O)N[C@@H](CC(=O)O)C(=O)N[C@@H](Cc1ccccc1)C(=O)N[C@H](C(=O)N[C@@H](CCC(N)=O)C(=O)N[C@@H](Cc1c[nH]c2ccccc12)C(=O)N[C@@H](CC(C)C)C(=O)N[C@@H](CCSC)C(=O)N[C@@H](CC(N)=O)C(=O)N[C@H](C(N)=O)[C@@H](C)O)C(C)C` [compound 11, des-His^1 [Glu^9-(OCH3)]] the “% Binding Affinity” value was 66%. `CCCC[C@H](NC(=O)[C@H](CO)NC(=O)[C@@H](NC(=O)[C@H](Cc1ccccc1)NC(=O)[C@@H](NC(=O)CNC(=O)[C@H](CCC(N)=O)NC(=O)[C@@H](N)CO)[C@@H](C)O)[C@@H](C)O)C(=O)N[C@@H](Cc1ccc(O)cc1)C(=O)N[C@@H](CO)C(=O)N[C@@H](CCCCN)C(=O)N[C@@H](Cc1ccc(O)cc1)C(=O)N[C@@H](CC(C)C)C(=O)N[C@@H](CC(=O)O)C(=O)N[C@@H](CO)C(=O)N[C@@H](CCCNC(=N)N)C(=O)N[C@@H](CCCNC(=N)N)C(=O)N[C@@H](C)C(=O)N[C@@H](CCC(N)=O)C(=O)N[C@@H](CC(=O)O)C(=O)N[C@@H](Cc1ccccc1)C(=O)N[C@H](C(=O)N[C@@H](CCC(N)=O)C(=O)N[C@@H](Cc1c[nH]c2ccccc12)C(=O)N[C@@H](CC(C)C)C(=O)N[C@@H](CCSC)C(=O)N[C@@H](CC(N)=O)C(=O)N[C@H](C(N)=O)[C@@H](C)O)C(C)C` [compound 17, des-His^1 [Nle^9] glucagon amide] was tested, and the “% Binding Affinity” value was 125%. “DSQGTFTSHYSKYLDSRRAQDFVQWLMNT-NH2 [compound 8, Asp^1 His^9]” was tested, and the “% Binding Affinity” value was 24%. For “HSQGTFTSYSKYLDSRRAQDFVQWLMNT-NH2 [compound 3, des-Asp^9]”, the “% Binding Affinity” value was 45%. For “SQGTFTSFYSKYLDSRRAQDFVQWLMNT-NH2 [compound 18, des-His^1 [Phe^9]]”, the “% Binding Affinity” value was 11%. For “SQGTFTSGYSKYLDSRRAQDFVQWLMNT-NH2 [compound 14, des-His^1 [Gly^9] glucagon amide]”, the “% Binding Affinity” value was 100%. In the case of “SQGTFTSHYSKYLDSRRAQDFVQWLMNT-NH2 [compound 16, des-His^1 [His^9]]”, the “% Binding Affinity” value is reported as 35%. For “SQGTFTSKYSKYLDSRRAQDFVQWLMNT-NH2 [compound 15, des-His^1 [Lys^9] glucagon amide]”, the “% Binding Affinity” value was 70%. For “SQGTFTSNYSKYLDSRRAQDFVQWLMNT-NH2 [compound 12, des-His^1 [Asn^9]]”, the “% Binding Affinity” value was 52.3%. In the case of “SQGTFTSQYSKYLDSRRAQDFVQWLMNT-NH2 [compound 13, des-His^1 [Gln^9]]”, the “% Binding Affinity” value is reported as 33%. With “SQGTFTSYSKYLDSRRAQDFVQWLMNT-NH2 [compound 19, des-His^1 des-Asp^9]” the “% Binding Affinity” value was 7%.
